Source: PubChem BioAssay AID902 (National Center for Advancing Translational Sciences (NCATS), 2007)
In all, about 130,000 compounds went through this assay and about 1,900 (1.5%) were called active. The inconclusive results got no clear call from the source; some entries with a clear call stand among them for comparison. Calls come from the whole dose curve; as a rule, active = well fitted cell-killing curve with a large enough effect; inconclusive = small, poorly fitted or top-dose-only effect; inactive = no such curve, though single readings can be large or run the other way. Potencies beside an inconclusive call are fits to weak or partial responses and may not hold up.

Experiment: qHTS Screen for Compounds that Selectively Target Cancer Cells with p53 Mutations: Cytotoxicity of p53ts Cells at the Nonpermissive Temperature; note: nearly all actives have a fitted effect of over 55% in size
Settings: H1299-p53A138V viability at 39C, ATP luminescence, 24 h; activity change, negative = cell killing: at 46.1 µM (top of the series)
% is set by controls: 0 for no effect and ±100 for the full control effect; potency is the fitted concentration of half-maximal effect; tags give direction and shape of the fitted curve.

Compound	Potency	activity change, negative = cell killing
CCCCNC(=O)c1nn(-c2ccc(CC)cc2)nc1CO	inconclusive: 15.8 µM [cytotoxic, partial curve, poor fit]	–
CCCOC(=O)CCn1c(=S)oc2ccccc21	–	inactive: -16.9%
O=C(Nc1cccc2nsnc12)c1cccs1	inactive	–
Cc1ccc2nc(-c3ccccc3F)c(Nc3ccc(Cl)cc3)n2c1	inconclusive: 15.8 µM [cytotoxic, single point]	–
Cc1csc(NC(=O)CCCSc2nc3ccccc3s2)n1	inconclusive: 31.6 µM [cytotoxic, single point]	–
COc1cccc(-n2cc(C(=O)NCCc3ccc(C)cc3)c3ccccc3c2=O)c1	inconclusive: 31.6 µM [cytotoxic, single point]	–
O=C(Nc1ccc2c(c1)OCO2)c1c(F)cccc1F	inconclusive: 20 µM [cytotoxic, single point]	–
Cc1ccccc1CS(=O)(=O)c1nnc([C@H](CC(C)C)NC(=O)OC(C)(C)C)o1	inconclusive: 31.6 µM [cytotoxic, single point]	–
CSCCC(NS(=O)(=O)c1ccc2c(c1)oc(=O)n2C)C(=O)N1CCN(c2cc(C)ccc2C)CC1 (stereo not given)	–	inactive: 11.6%
COc1cccc(C(=O)Nc2ccc3nc(SCC(=O)N4CCOCC4)sc3c2)c1	inconclusive: 25.1 µM [cytotoxic, single point]	–
CCCCS(=O)(=O)c1oc(-c2cccs2)nc1S(=O)(=O)c1ccccc1	active: 3.16 µM	–
Cc1cc(C)n2c(Nc3ccc(Cl)cc3)c(-c3ccsc3)nc2n1	inconclusive: 31.6 µM [cytotoxic, single point]	–
O=C(NC1=NCCS1)c1cccs1	–	inactive: 7.35%
Nc1cccc(-c2nc3ccccc3[nH]2)c1	inconclusive: 12.6 µM [cytotoxic, single point]	–
Cc1ccc(-n2nnnc2SCC(=O)NC(=O)Nc2ccc3c(c2)OCCO3)cc1	–	inactive: -21.8%
COc1cc(/C=C/c2nc(C#N)c(N3CCCCCC3)o2)cc(OC)c1OC	inconclusive: 39.8 µM [cytotoxic, partial curve, poor fit]	–
O=C(NCCc1ccc(Cl)cc1)c1ccc(CS(=O)Cc2ccccc2Cl)o1 (stereo not given)	inconclusive: 12.6 µM [cytotoxic, partial curve]	–
CCc1cccc(NC(=O)Cn2c(=O)n(CC(=O)NCCc3ccccc3)c(=O)c3ccccc32)c1	active: 6.31 µM	–
COc1cccc(-c2cn3nc(C)c(C)nc3n2)c1	inconclusive: 10 µM [cytotoxic, partial curve]	–
CCOCCCN1C(=O)c2[nH]nc(-c3ccccc3O)c2C1c1ccc(CC)cc1 (stereo not given)	inconclusive: 10 µM [cytotoxic, single point]	–
COc1ccccc1N1C(=O)N(C(C)=O)C2C1Nc1ccccc1N2C (stereo not given)	inconclusive: 31.6 µM [cytotoxic, single point]	–
Cc1ccc(C)c(CNC(=O)CCn2cccn2)c1	–	inactive: -19.2%
CCOC(=O)C(C)Sc1nnc(-c2ccccc2O)n1-c1ccc(C)cc1 (stereo not given)	–	inactive: -8.13%

Compound	Potency	activity change, negative = cell killing
CCc1ccc(OCc2nc(-c3ccc(OC)cc3)no2)c(Br)c1	inconclusive: 0.01 µM [cytotoxic, full curve]	–
Cc1c(CCC(=O)NCc2cccc(Cl)c2)c(=O)oc2c(C)c(O)ccc12	inconclusive: 31.6 µM [cytotoxic, single point]	–
COc1ccccc1N1CCN(c2ccc(-c3ccccc3)nn2)CC1	active: 2 µM	–
CC(=O)c1ccc(NC(=O)c2ccc(-c3ccc(Cl)cc3)o2)cc1	–	inactive: 4.3%
Cc1cccc(N2CCN(C(=O)c3cccn4c(=O)c5cc(Cl)ccc5nc34)CC2C)c1 (stereo not given)	–	inactive: -23.7%
Cc1nc(SCC(=O)N2CCN(C(=O)c3ccco3)CC2)c2c(C)c(C)sc2n1	–	inactive: 11.5%
COc1cccc(-c2nc(NCc3ccccc3OC)c3ccccc3n2)c1	–	inactive: -7.23%
Cc1nc2sc(C(c3ccco3)N3CCC(Cc4ccccc4)CC3)c(O)n2n1 (stereo not given)	inconclusive: 0.501 µM [cytotoxic, partial curve]	–
COc1ccc(NC(=O)c2ccc(OC)cc2)cc1	inconclusive: 3.98 µM [cytotoxic, partial curve]	–
COC(=O)c1cc2sc(C)cc2n1CC(=O)Nc1ccc(C)c(C)c1	inconclusive: 7.94 µM [cytotoxic, partial curve]	–
CCOc1ccc(NC(=O)c2cc(S(=O)(=O)N3CCCCCC3)cn2C)cc1	inconclusive: 0.631 µM [cytotoxic, full curve, poor fit]	–
O=S(=O)(O)c1ccc(N=Nc2ccccc2)cc1	–	inactive: 8.74% [at 9.22 µM]
O=C(Cn1c(=O)n(Cc2ccco2)c(=O)c2ccccc21)Nc1ccc(Cl)cc1Cl	inconclusive: 15.8 µM [cytotoxic, single point]	–
Cc1ccc(S(=O)(=O)Cc2ccc(C(=O)N3CCN(c4cccc(C)c4C)CC3)o2)cc1	–	inconclusive: -31% [cytotoxic]
CN(C)C(=O)c1ccc(-c2nc(Nc3ccc(F)cc3)c3ccccc3n2)cc1	inconclusive: 10 µM [cytotoxic, partial curve]	–
O=C(CSc1ncnc2c1oc1ccccc12)Nc1ccc2c(c1)OCCO2	inconclusive: 31.6 µM [cytotoxic, single point]	–
COc1ccccc1-c1cc(C(F)(F)F)nc(S(=O)(=O)CCCC(=O)N2CCOCC2)n1	inconclusive: 31.6 µM [cytotoxic, single point]	–
CCOC(=O)c1cccc(NC(=O)c2cc3sccc3n2Cc2ccc(Cl)cc2)c1	inconclusive: 0.0708 µM [cytotoxic, single point]	–
FC(F)(F)c1cc(CN2CCCC3(CCNCC3)C2)cc(C(F)(F)F)c1	inconclusive: 20 µM [cytotoxic, single point]	–
Cc1ccccc1CNC(=O)c1ccc(NC(=O)c2nsc3ccccc23)cc1	inconclusive: 7.94 µM [cytotoxic, partial curve]	–
CCn1c(=O)cc(SCC(=O)Nc2ccc(C)c(F)c2)c2ccccc21	inconclusive: 25.1 µM [cytotoxic, single point]	–
COc1cccc2sc(Nc3nc(-c4ccccn4)cs3)nc12	inconclusive: 5.01 µM [cytotoxic, partial curve]	–
